Measurements reported in PMC4336329 (PLoS ONE, 2015).
Among all 310,000 compounds or so, about 14,000 (4.5%) showed an effect of 50% or more. The effect is printed as a negative number. The list shows a part of the results.

Biological target: human ether-à-go-go-related gene (hERG) potassium channel (human, UniProt Q12809)
Assay: primary screen, population patch clamp on CHO cells stably expressing hERG
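Further: peak tail current of the secondary pulse compared with the same well before compound.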

Chain of human ether-à-go-go-related gene (hERG) potassium channel (Q12809 whole entry, looked up): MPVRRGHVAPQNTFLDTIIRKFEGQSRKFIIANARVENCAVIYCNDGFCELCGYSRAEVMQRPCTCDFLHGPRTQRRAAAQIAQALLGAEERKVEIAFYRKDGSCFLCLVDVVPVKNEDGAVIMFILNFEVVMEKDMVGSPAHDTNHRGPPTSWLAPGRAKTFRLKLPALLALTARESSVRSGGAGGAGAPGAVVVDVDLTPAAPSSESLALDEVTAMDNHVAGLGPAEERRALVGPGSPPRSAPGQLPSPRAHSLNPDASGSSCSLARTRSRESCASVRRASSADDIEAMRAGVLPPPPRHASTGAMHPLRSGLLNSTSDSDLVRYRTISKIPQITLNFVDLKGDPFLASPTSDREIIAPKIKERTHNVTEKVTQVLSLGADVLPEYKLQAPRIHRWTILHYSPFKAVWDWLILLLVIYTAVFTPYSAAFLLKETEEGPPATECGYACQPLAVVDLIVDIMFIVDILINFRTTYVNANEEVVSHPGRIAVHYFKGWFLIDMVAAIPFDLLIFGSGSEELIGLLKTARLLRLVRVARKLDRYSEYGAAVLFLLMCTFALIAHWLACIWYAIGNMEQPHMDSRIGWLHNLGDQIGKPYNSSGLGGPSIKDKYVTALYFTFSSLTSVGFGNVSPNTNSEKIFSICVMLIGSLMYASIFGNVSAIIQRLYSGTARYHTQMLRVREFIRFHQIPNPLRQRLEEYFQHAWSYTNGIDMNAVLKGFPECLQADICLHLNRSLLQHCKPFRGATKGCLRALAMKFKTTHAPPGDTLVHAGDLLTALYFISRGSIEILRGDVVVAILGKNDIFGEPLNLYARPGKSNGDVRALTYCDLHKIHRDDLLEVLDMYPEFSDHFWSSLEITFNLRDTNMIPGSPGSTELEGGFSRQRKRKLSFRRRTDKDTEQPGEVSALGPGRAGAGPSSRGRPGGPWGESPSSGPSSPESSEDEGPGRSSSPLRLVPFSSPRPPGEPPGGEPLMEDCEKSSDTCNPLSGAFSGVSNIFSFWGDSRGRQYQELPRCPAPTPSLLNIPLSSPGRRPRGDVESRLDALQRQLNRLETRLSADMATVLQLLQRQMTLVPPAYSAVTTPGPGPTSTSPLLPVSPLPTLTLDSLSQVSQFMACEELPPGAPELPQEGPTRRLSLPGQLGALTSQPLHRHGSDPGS

| SMILES | hERG current change (%, negative = inhibition) at 10uM |
| --- | --- |
| COc1ccccc1N1CCN(CCc2n[nH]c(=S)n2-c2ccccc2)CC1 | 8.54% |
| CC(C)(C)NC(=O)CCC1COc2ccccc2O1 (stereo not drawn) | -4.27% |
| CCOc1ccc(/C=C(\C#N)C(=O)NCC2CCCO2)cc1OCC (stereo not drawn) | -5.95% |
| CN1CCN(S(=O)(=O)c2ccc(NC(=O)C3CCCO3)cc2)CC1 (stereo not drawn) | -4.63% |
| CCOP(=O)(OCC)C(O)c1ccc2c(c1)OCO2 (stereo not drawn) | 12.2% |
| CNC(=O)/C(=C\c1cccc(Oc2ccccc2)c1)NC(=O)c1ccccc1 | 12.4% |
| Cc1ccc(C)c(OCC(=O)N(C)CC(=O)Nc2ccc(Cl)c(C(F)(F)F)c2)c1 | 1.6% |
| COc1ccc(NC(=O)C2CCCN(S(=O)(=O)c3ccc4c(c3)CCCN4C(C)=O)C2)cc1Cl (stereo not drawn) | 9.52% |
| Cc1nn(CC(=O)NCCCc2ccccc2)c(C)c1[N+](=O)[O-] | -2.28% |
| CCc1nc2ccccc2c(=O)n1/N=C/c1ccc(OC)cc1 | -1.67% |
| O=C(NCCCCc1ccccc1)C1CC(c2ccccc2[N+](=O)[O-])=NO1 (stereo not drawn) | -32.9% |
| CC(C)(C)c1ccc(CNc2cc(N3CCOCC3)ccc2[N+](=O)[O-])cc1 | 15.3% |
| O=C(CN1C(=O)NC2(CCCC2)C1=O)Nc1nc(-c2ccc(F)cc2)cs1 | 3.26% |
| Cc1ccc(NC(=S)N(CCCN(C)C)Cc2cc3cc4c(cc3[nH]c2=O)OCO4)c(C)c1 | -35% |
| CN1C(C(=O)NCc2cccc(C(F)(F)F)c2)CC2Cn3c(nc4cc(Cl)c(Cl)cc43)C21 (stereo not drawn) | -73.6% |
| COc1ccc(OC(=O)COc2ccc(C)cc2)cc1 | 20.5% |
| CCOC(=O)c1ccc(NC(=O)CC2SC3=NCCN3C2=O)cc1 (stereo not drawn) | 9.01% |
| CCc1cc(=O)oc2cc(OCC(=O)NC3CC(C)(C)NC(C)(C)C3)ccc12 | 9.86% |
| CC1CCCN(C(=O)CN2C3CCC2CC(O)(c2ccc(F)cc2)C3)C1 (stereo not drawn) | -6.54% |
| CSC1=NCCN1C(=O)COc1ccc2ccccc2c1 | 12.6% |
| CC(=O)Nc1nc2cc(C(N)=O)ccc2s1 | -4.58% |
| Cc1[nH]c2ccccc2c1/C=N/NC(=O)CNC(=O)c1ccccc1 | -9.38% |
| CN1CCN(C(=O)c2ccccc2N(Cc2ccccc2)S(C)(=O)=O)CC1 | -4.91% |

| SMILES | hERG current change (%, negative = inhibition) at 10uM |
| --- | --- |
| CCN(c1ccccc1)S(=O)(=O)c1ccc2c(c1)CCCN2C(C)=O | 0.361% |
| CC(=O)Nc1ccc(S(=O)(=O)CCC(=O)O)cc1 | 17.5% |
| CCN(CC)CC(O)CN1c2ccccc2Sc2ccccc21 (stereo not drawn) | -25% |
| CC(=O)Nc1ccc(OCC(=O)c2cc(C)ccc2C)cc1 | 9.21% |
| Cn1cc(C(=O)Nc2ccc3c(c2)CCC3)cn1 | 1.88% |
| Cc1nc(N=Nc2ccc(O)cc2)n[nH]1 | 7.01% |
| NNC(=O)c1ccccc1CO | 3.65% |
| COc1ccc(-c2nnc3ccc(SCC(=O)N4CCCCC4)nn23)cc1OC | -14.4% |
| CCOc1ccc2[nH]c3c(NCCc4ccc(OC)c(OC)c4)ncnc3c2c1 | -17.3% |
| COCCC(=O)N1CCC(Oc2ccc(C(=O)N(C)C3CCCCC3)cc2)CC1 | 15.6% |
| Cn1c(=O)n(C)c2cc(NC(=O)c3ccc(F)cc3)c(Br)cc21 | 7.81% |
| O=C(NCCN1CCOCC1)c1cc(-c2ccc(Cl)cc2Cl)on1 | -10.2% |
| Cc1cc(C)c(S(=O)(=O)N2CCCCC2CCNC(=O)C(=O)NCc2ccccn2)c(C)c1 (stereo not drawn) | -9.72% |
| COC(=O)CN(C#N)c1nc(NCc2ccccc2)nc(OC)n1 | -1.33% |
| Nc1ccnn1Cc1cccnc1 | 2.63% |
| COCc1cc(CN2CCCC2)c(O)c2ncccc12 | -10.4% |
| COC(=O)c1ccc(S(=O)(=O)NCc2ccco2)o1 | 6.1% |
| COc1ccc(C(NC(C)=O)c2c(O)ccc3ccccc23)cc1OC (stereo not drawn) | -0.144% |
| CCn1nc(C)c(NC(=O)c2cc(Br)ccc2Cl)c1C | -0.748% |
| CC(C)C(=O)N1c2ccccc2NC2=C(C(=O)CCC2)C1c1ccc(N(C)C)cc1 (stereo not drawn) | -2.84% |
| CNC(=O)Nc1ccc(C2SCCS2)cc1 | 7.02% |
| Cc1cccc(C(=O)O/N=C(\N)c2ccc(Br)cc2)c1 | 11.6% |
| CC(=O)c1ccc2noc(-c3ccc(C)cc3)c2c1 | -0.176% |

| SMILES | hERG current change (%, negative = inhibition) at 10uM |
| --- | --- |
| CC1=C(C(=O)OC(C)C)C(c2cncc(-c3ccc(F)cc3)c2)C(C#N)=C(N)O1 (stereo not drawn) | -28.6% |
| COc1cc(-c2nc3oc4ccccc4c(=O)c3c(=O)n2Cc2ccco2)cc(OC)c1OC | -1.9% |
| CC(=O)Nc1ccc(S(=O)(=O)Nc2cccc(-c3nc4cc(C)ccc4o3)c2)cc1 | 3.15% |
| COc1ccccc1NS(=O)(=O)c1cc([N+](=O)[O-])ccc1N/N=C/c1c(C)[nH]c2ccccc12 | 14.8% |
| Cc1ccc(NC(=O)Cc2nn(C)c(=O)c3ccccc23)cc1F | 9.52% |
| COc1cc(OC)cc(C(=O)NNC(=O)c2ccccn2)c1 | 2.16% |
| Cc1cnccc1CN(C)Cc1cn(C)nc1-c1ccc(Oc2ccccc2)cc1 | -27.4% |
| CN1C(=S)SC2CS(=O)(=O)CC21 (stereo not drawn) | 7.75% |
| NC(=O)C1CCN(C(=O)c2cccc3ccccc23)CC1 | 11.1% |
| CCOC(=O)C1CCCN(Cc2ccccc2OCC)C1 (stereo not drawn) | -2.92% |
| Cc1ccc(S(=O)(=O)N2CCCC2C(=O)Nc2nc3c(s2)CCCC3)cc1 (stereo not drawn) | -10.9% |
| CC1=NS(=O)(=O)c2cc(Cl)ccc2N1 | -2.63% |
| CCOc1ccc(CN2CCSCC2)cc1 | 2.36% |
| CCn1c(SCc2nc3ccccc3c(=O)[nH]2)nnc1-c1cccnc1 | -16.6% |
| Br.N=C(N)SCc1nc2ccccc2c(=O)n1-c1ccccc1Cl | -21.9% |
| CC(=O)C1=C(C)N(Cc2ccccc2)C(=O)N[C@H]1c1cccs1 | 2.42% |
| O=C(O)C1CC=CCC1C(=O)Nc1cccnc1 (stereo not drawn) | 10.5% |
| Cc1cc(=O)[nH]c2c(C)cc(S(=O)(=O)Nc3ccc(O)cc3)cc12 | 5.1% |
| COc1ccc(S(=O)(=O)Cc2ccc(C(=O)N3CC(C)CC(C)C3)o2)cc1 (stereo not drawn) | -14.2% |
| COc1cc(C)c(C)cc1S(=O)(=O)NC1CC(C)(C)NC(C)(C)C1 | 2.92% |
| CCC(C(=O)Nc1ccc(C(=O)N2CCCC2)cc1)c1ccccc1 (stereo not drawn) | -1.42% |
| COc1ccc(-c2csc(N3CCN(c4cc(C)nc5ccccc45)CC3)n2)cc1OC | -48.9% |
| COc1ccccc1C(=O)Nc1cc2cc(Cl)ccc2oc1=O | -1.76% |

| SMILES | hERG current change (%, negative = inhibition) at 10uM |
| --- | --- |
| CN(CCO)C(=O)CCC(=O)Nc1ccc(S(N)(=O)=O)cc1 | -11.4% |
| C=CCN(CC=C)S(=O)(=O)c1ccc(NC(=S)NC(=O)/C=C/c2ccc(C)cc2)cc1 | 6.12% |
| CCC(C)(C)n1nnnc1C(c1cc2cc(C)cc(C)c2[nH]c1=O)N1CCCC1 (stereo not drawn) | -8.71% |
| CC(C)CC(NS(=O)(=O)c1ccccc1)C(=O)O (stereo not drawn) | 1.59% |
| O=C1CSCN1c1ccc(Cl)cc1 | 5.84% |
| O=c1c2ccccc2[nH]c(=S)n1Cc1cccnc1 | 12% |
| CCCCCOc1ccc(CSc2n[nH]c(C)n2)cc1 | 14.9% |
| CNC(=O)C1CC(=O)N(CCCc2ccccc2)C(=Nc2ccccc2)S1 (stereo not drawn) | -5.47% |
| O=C(CC(Cc1ccccc1)C(=O)O)NCCc1ccc2c(c1)OCO2 (stereo not drawn) | -16.3% |
| O=C(Cc1ccccc1)N[C@H](c1ccccc1)P(=O)(O)CO | 8.47% |
| COc1ccc(Cl)cc1NC(=O)Cn1c(=O)n2nc(C)nc2c2ccccc21 | -8.07% |
| COc1ccccc1C1C(C#N)=C(N)N(N(C)C)C2=C1C(=O)CC(C)(C)C2 (stereo not drawn) | 10.7% |
| CCOc1ccc(NC(=O)CSCC(=O)O)cc1 | 1.8% |
| O=C(CSc1nc2ccccc2c(=O)n1Cc1ccco1)NCCN1C(=O)CSC1=O | -61.4% |
| CCOC(=O)[C@H]1[C@H]2COc3ccc(C)cc3[C@@H]2N2C(=O)c3ccc(C)cc3NC(=O)[C@@]12C | 3.7% |
| CC(=O)c1cccc(NC(=O)c2ccc(N(Cc3ccc(C)cc3)S(C)(=O)=O)cc2)c1 | -10.1% |
| CC(=O)c1ccc(S(=O)(=O)N2CCN(CCOc3ccc(Br)cc3)CC2)cc1 | -31.4% |
| CSCC(=O)N1CCCC(N2CCN(c3cccc(C(F)(F)F)c3)CC2)C1 (stereo not drawn) | -48.1% |
| O=C(Oc1ccc(-c2cnc3ccccc3n2)cc1)c1cc([N+](=O)[O-])ccc1Cl | 9.37% |
| Cc1cnc(=O)[nH]c1SCc1cccc([N+](=O)[O-])c1 | 2.35% |
| Oc1cc(O)cc(/C=C/c2ccc(O)c(O)c2)c1 | -0.655% |
